Measurements as given in PubChem BioAssay AID1645887 (National Center for Advancing Translational Sciences (NCATS), 2021).
“And” between values parts separate entries of the source, which are not always exact repeats. Identical values can stand only once. Hit rate of the full screen: of about 16,000 compounds, about 40 (0.2%) were called active. Not shown: some 1% with an inconclusive outcome. Calls follow the shape of the dose curve; as a rule, active = well fitted activation curve with a large enough effect; inconclusive = small, poorly fitted or top-dose-only effect, or another doubt; inactive = no such curve, though single readings can be large or run the other way. The list shows a part of the results. Starred links: 1 amine or outer side, 2 acyl side, 3 side chain; linkers in the order of their positions; H or OH if unused. Positions of bridges follow the written chain, without caps; N, C: chain ends. Non-standard residues stand in square brackets, D forms with d. Residues, ends and D or L forms follow the SMILES beside them. Chains are numbered I, II in the order given. Actinocin(9to1) = Cc1c2oc3c(C)ccc(C(=O)[*:1])c3nc-2c(C(=O)[*:2])c(N)c1=O; NMeV = CN[CH](C(=O)O)C(C)C; Sar = CNCC(=O)O

The compounds below were run against Rap guanine nucleotide exchange factor 4 (Homo sapiens) (UniProt Q8WZA2) (assay: Validation qHTS for agonist of cAMP-regulated guanine nucleotide exchange factor 4 (EPAC2)). Conditions: EPAC2 Rap1B BODIPY-GDP exchange, fluorescence; activation: stronger effect = higher value.
UniProt Q8WZA2, sequence (Q8WZA2 whole entry, looked up): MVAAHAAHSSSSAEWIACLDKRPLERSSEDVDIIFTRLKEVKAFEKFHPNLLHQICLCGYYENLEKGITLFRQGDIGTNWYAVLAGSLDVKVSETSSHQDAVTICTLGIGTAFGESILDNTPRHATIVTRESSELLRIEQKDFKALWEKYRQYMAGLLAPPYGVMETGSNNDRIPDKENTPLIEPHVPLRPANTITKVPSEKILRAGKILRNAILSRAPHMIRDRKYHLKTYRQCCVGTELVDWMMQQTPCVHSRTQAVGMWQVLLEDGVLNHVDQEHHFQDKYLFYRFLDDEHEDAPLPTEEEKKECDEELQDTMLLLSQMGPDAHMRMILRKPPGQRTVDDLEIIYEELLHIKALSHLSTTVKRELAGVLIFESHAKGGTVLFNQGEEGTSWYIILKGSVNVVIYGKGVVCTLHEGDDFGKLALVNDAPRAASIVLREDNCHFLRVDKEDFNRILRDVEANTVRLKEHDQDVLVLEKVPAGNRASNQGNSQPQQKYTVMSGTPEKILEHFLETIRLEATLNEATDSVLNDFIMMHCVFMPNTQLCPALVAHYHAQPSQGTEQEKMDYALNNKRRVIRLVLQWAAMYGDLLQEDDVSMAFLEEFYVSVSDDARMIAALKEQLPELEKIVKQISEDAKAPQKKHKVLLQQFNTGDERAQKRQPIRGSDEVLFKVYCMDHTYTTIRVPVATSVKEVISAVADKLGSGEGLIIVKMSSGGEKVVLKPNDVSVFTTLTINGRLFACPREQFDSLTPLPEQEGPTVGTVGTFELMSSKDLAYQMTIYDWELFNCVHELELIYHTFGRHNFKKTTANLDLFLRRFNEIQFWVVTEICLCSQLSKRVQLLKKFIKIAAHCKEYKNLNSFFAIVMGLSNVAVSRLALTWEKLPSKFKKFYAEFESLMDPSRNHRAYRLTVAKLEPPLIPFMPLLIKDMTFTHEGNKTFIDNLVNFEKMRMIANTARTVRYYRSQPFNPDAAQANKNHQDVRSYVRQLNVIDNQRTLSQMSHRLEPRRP
Method in brief: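 Fluorescent exchange assay: 100 nM EPAC2 with 250 nM RAP1B-BODIPY-GDP and 50 uM GDP; compound added, 5 min at room temperature, then read (ex 480/em 540 nm) every 5 min for 30 min. Normalized to 6.5 mM cAMP agonist control.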
% is scaled to controls: 0 for no effect and ±100 for the full control effect.
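Also: exchange makes BODIPY-GDP fluorescence drop when released from Rap1B; series mostly up to about 150 µM.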

activation, inactive:
COCCn1c(=O)c(-c2cccs2)nc2cnc(OC)nc21 -3.53%
Cc1cnc(CNc2cc(-c3ccc(N(C)C)cc3)ncn2)cn1 -19.7%
c1ccc(-c2cn(CC3CCCCC3)nn2)cc1 -14.8%
Oc1ccc(-c2cnccn2)cc1CN1CCN(C2CCCCC2)CC1 -11.2%
Cc1cc2c(cc1Cl)N(C(=O)Nc1ccc(Oc3cccnc3C)nc1)CC2 -35.1%
O=C(c1cccnc1)C1CCCN(Cc2ccc3c(c2)CN(C(=O)c2ccc4[nH]ccc4c2)CCO3)C1 (stereo unspecified) -19.8%
O=c1c(O)c(-c2ccc(O)c(O)c2)oc2c(OC[C@@H]3O[C@@H](O)[C@@H](O)[C@H](O)[C@H]3O)c(O)cc(O)c12 -4.99%
COc1cc(-c2nc(C)cnc2C)cc2c1OCCN(C(=O)Cn1nc(-c3ccccc3)c3ccccc3c1=O)C2 -10.4%
CCNc1ncc2nc(-c3ccccc3)c(=O)n(CCOC)c2n1 8.48%
COCC(=O)N1CCC2(CCN(Cc3ccc(C#N)cc3)CC2)CC1 -2.38%
Cc1ccc(S(=O)(=O)NC(=O)NC2CCCC2)cc1 -3.75%
O=C(N[C@@H](Cc1ccccc1)C(=O)CCl)OCc1ccccc1 -40.9%
COc1ccc2c(c1)[C@]1(C)CCC(=O)C[C@H]1CC2 -16%
Cc1cc2c(c(-c3nc4ccccc4s3)c1)OC(CNC(=O)CCc1cccnc1)C2 (stereo unspecified) 5.87%
CCNc1ncc2nc(CCc3ccccc3)c(=O)n(C[C@H]3CCCO3)c2n1 -5.55%
COc1ccccc1CCn1c(=O)c(-c2ccc(F)cc2)nc2cncnc21 -11.1%
CCOc1cc(-c2nccc3cc(OC)c(OC)cc23)cc(OCC)c1OCC -53.3%
Cc1ccc2c(Br)cc(Br)c(O)c2n1 -1.17%
CC(CC=O)CCCC(C)(C)O (stereo unspecified) -20.3%
COc1ncc2nc(C)c(=O)n(CCC#N)c2n1 -9.33%
CCC1CN(CCNC(=O)c2ccc3c(c2)OCO3)Cc2cc(OC)ccc2O1 (stereo unspecified) -1.73%
Nc1cnccn1 -16.9%
O=C1CCN(Cc2ccccc2)S(=O)(=O)c2ccc(F)cc21 -25%
CC[N+]1(C)C2CCC1CC(OC(=O)[C@H]1CCC(C(=O)OC3CC4CCC(C3)[N+]4(C)CC)(c3ccccc3)c3ccccc31)C2 (stereo partly specified) 9.44%
CN(C)c1ccc(/C=C/N2C=CCc3c2ccc2ccccc32)cc1 -11.8%
O=c1c(-c2cc(F)cc(F)c2)nc2cnc(N3CCNCC3)nc2n1CCc1ccccc1 1.94%
C#CCCCCCCCCCCCC(=O)CC(O)COC(C)=O (stereo unspecified) -7.08%
COc1ccc(C(=O)N2CCC3(CC2)CN(c2cccc(-c4ccccc4)c2)C3)cc1 3.64%
C[C@H]1[C@H](C)CC[C@]2(C(=O)O)CC[C@]3(C)C(=CCC4[C@@]5(C)C[C@@H](O)[C@H](O)[C@@](C)(CO)[C@@H]5CC[C@]43C)[C@H]12 (stereo partly specified) -55.7%
O=C(Oc1ccccc1)N1CCC2(CCCN(c3ccc(-c4ccccc4)cc3)C2)CC1 -3.17%
O=C1c2c(O)cccc2[C@@H]([C@@H]2O[C@H](CO)[C@@H](O)[C@H](O)[C@H]2O)c2cc(CO)cc(O)c21 -17.6%
COc1cc2cc3c4cc(OC)c(OC)cc4cc[n+]3c(C)c2cc1OC 10.4%
Cc1c2oc3c(C)ccc(C(=O)NC4C(=O)NC(C(C)C)C(=O)N5CCCC5C(=O)N(C)CC(=O)N(C)C(C(C)C)C(=O)OC4C)c3nc-2c(C(=O)NC2C(=O)NC(C(C)C)C(=O)N3CCCC3C(=O)N(C)CC(=O)N(C)C(C(C)C)C(=O)OC2C)c(N)c1=O (stereo unspecified) (I: TVP[Sar][NMeV] / II: TVP[Sar][NMeV]; ester I:1-I:C, II:1-II:C; linker I:N-II:N via Actinocin(9to1); configuration not given here) -0.481%
CC(COc1ccc(/C=C/c2ccccc2)cc1)[N+](C)(C)C (stereo unspecified) -58.8%
O=c1cnc2cncnc2n1Cc1ccccc1Cl 0.875%
CCCCCCCCN1[C@@H](CC(=O)OCC)c2cc(F)ccc2S1(=O)=O -3.46%
CC(=O)OC1CC2C(C)(C)CCC(=O)[C@@]2(C)C2CC[C@@]3(C)C(c4ccoc4)OC(=O)C4OC43[C@]12C (stereo partly specified) 7.55%
COCCNc1ncnc2ccc(-c3ccccc3C)cc12 -17.1%
c1ccc(C2CN3CCSC3=N2)cc1 (stereo unspecified) -10.2% and -33.3%
COc1cccc(-c2cc(=O)c3cc(O)ccc3o2)c1 -8.27%
COCC(=O)Nc1cc(C(=O)N2CCCC(C(C)=O)C2)cc2nc(-c3ccccc3)n(C)c12 (stereo unspecified) 3.29%
COC(=O)c1c(OCc2cccnc2)cc(=O)n2c1CCN(C(=O)c1ccc(OC)c(F)c1)CC2 -13.4%
CC(C)CN1CC[C@@]2(CCCN(C(=O)c3cnccn3)C2)C1 -23.6%
CSc1ccc(-c2ccc(C(=O)NCC3CCCO3)c(N3CCC(O)CC3)n2)cc1 (stereo unspecified) -6.45%
COc1cccc(Nc2ncc3nc(-c4ccccc4)c(=O)n(C4CC4)c3n2)c1 -7.24%
O=c1c(O)c(-c2ccc(O)c(O)c2)oc2c(OC3OC(CO)C(O)C(O)C3O)c(O)cc(O)c12 (stereo unspecified) -8.2%
COc1ccc(NC(=O)c2ccc(-c3ccc(-c4noc(C)n4)cc3C)cc2)cc1OCCN(C)C -7.88% and 5.79%
N#Cc1ccc(CN2CC[C@@]3(CCCN(C(=O)c4cccc(F)c4)C3)C2)cc1 -5.78%
NCCCC[C@H](N[C@@H](CCc1ccccc1)C(=O)O)C(=O)N1CCC[C@H]1C(=O)O -0.853%
NC1(C(=O)O)CCCC1 -8.37%
O=C(/C=C/c1ccccn1)NCC1Cc2cccc(-c3ncccn3)c2O1 (stereo unspecified) -18.3%
